Measurements from the RNAGym collection of RNA variant scans (doi:10.7554/elife.90254).
The source gives no read counts; variants with many changes may rest on few reads.

B1: LINE1-mini (parent)
chain: GGCAGAGCUCAACACAGCGUGGCAAAGUGGCUGUGGCUAGACUGCC

Variants of: B1
Experiment: self-cleavage, relative activity (ratio to wild type); higher = more cleavage; in vitro, sequencing; the parent is a self-cleaving ribozyme

Row | Variant | self-cleavage
1 | GGCAGAGCUCAACACAGCGUGGCCAAGUGGCUGUAGCUAGACAGCC [A24C G35A U43A] | 0.02
2 | GGCCGUGCUCAACACAGCGUGGCAAAUUGGCUGUGGCUAGACUGCC [A4C A6U G27U] | 0.34
3 | GGCAGAGAUCAACACAGCGUGGCAAAGUGGAUGUCGAAAGACUACC [C8A C31A G35C C37A U38A G44A] | 0.03
4 | GGCAGAGCUCACCACAGCGUGUCAAAGUGGCUGUCGCUAGACUGAC [A12C G22U G35C C45A] | 0.01
5 | GGCAGAGCUCAACACAGCGUGACAAAGUAGUUGUUGCUAGACUGCC [G22A G29A C31U G35U] | 0.03
6 | GGCAGCUCUCAACACAGCGUGGCAAAGUUGCUGUGGCUAGACUGCC [A6C G7U G29U] | 0.02
7 | GGCAGAGCUCAAAACAGCGUGGCAAAGUGGCUGGGGCUAGAAUGCC [C13A U34G C42A] | 0.03
8 | CGCAGCGCUCAACAUAGUGUGGCUAAGUGGCUGUGGCUAGACUGCC [G1C A6C C15U C18U A24U] | 0.01
9 | GGUAGAGCUCAAAAAAGCGUGGCAAAGUGGCUGUGGCAAGACUGCC [C3U C13A C15A U38A] | 0.12
10 | GGCACAACUCAACACACCGUGGCAAAGUGGCUGUGGCUAGACUGCC [G5C G7A G17C] | 0.17
11 | GGAAGAGCUCAACACAGCUUAGCAAAGUGGCUGUUGCGAGACUGCC [C3A G19U G21A G35U U38G] | 0.04
12 | GGAAGAGCUCAACACACCGUGGCAAAGUGGUUGUGGCUAAACUGCC [C3A G17C C31U G40A] | 0.01
13 | GGCAGAGCUAAAUACACCGUGGAAAACUGGCUGUGGCGCGACUGCC [C10A C13U G17C C23A G27C U38G A39C] | 0.02
14 | GUCAGAGCUCAACACAGUGUGGCAAAGUGACUGUGGCUAGACUGCC [G2U C18U G30A] | 0.59
15 | GGCAGAGCUCAACACAGCGUGGCAAAGUUGCGCUGGCAAGACUGCC [G29U U32G G33C U38A] | 0.3
16 | GGCAGAGCGCAACACAGCGUGGCAAAGUGGCUGUGCCUAGACUGCA [U9G G36C C46A] | 0.04
17 | GGCAGAGGUCAACACAGCGUUGCAAAGUGGCUGUGGCUAUACCGCC [C8G G21U G40U U43C] | 0.27
18 | GGCAGAGCUCAACGCAGCGUGGCAAAGUUUCUGUGACUAGACUGCC [A14G G29U G30U G36A] | 0.04
19 | GCCAGAGCUCAAUACAGCGUGGCAAAGUGGCUGUGGCGAGACUGCA [G2C C13U U38G C46A] | 0.03

Row | Variant | self-cleavage
20 | GGCCGGGCUCAACACAGCGUUGCAAAGGGGCUGUGGCUAGACUGCC [A4C A6G G21U U28G] | 0.07
21 | GGCAGAGCUCAAUACAGCGUCGCAAAGUAGCUUUGGCUAGACUGCC [C13U G21C G29A G33U] | 0.03
22 | GGCAGUGCAUAACACAGCCUGGCAAAUUGGCUGUGGCUAGACUGCC [A6U U9A C10U G19C G27U] | 0.06
23 | GGCAGAGCUCAACAAAGCGUGGCAAAGUGGCUGUGGCUAGUCUGCA [C15A A41U C46A] | 0.06
24 | AGCAGAGCUCAACAUAGCGUGGCAAACUGGCUGUUGCUAGACUGCC [G1A C15U G27C G35U] | 0.08
25 | GGCAGAGCUCAACAAUGCGUGGCAAAGUGGCUGUGGCUAAACUGCG [C15A A16U G40A C46G] | 0.03
26 | GGCAGAGCUCACCACAGCGUGGCAUCAUGGCUGUAGCUAGACUGCC [A12C A25U A26C G27A G35A] | 0.11
27 | GGCAGAGGUCAACACAGCGUGGCAAAGUGGAUGUGACUAAAGUGCC [C8G C31A G36A G40A C42G] | 0
28 | GGCAGAGCUCAAUACAGCGUCGCAAAGUCGCUGUGGCUAGACUGCC [C13U G21C G29C] | 0.06
29 | GACAGAGCUCAACACAGCGUGGCCAAGCGGCUGUGGCUAGACUGCC [G2A A24C U28C] | 0.7
30 | GGCAGAGCUCAACACAGCGUGGCAAAGUGGCUGUCGCAAGUCUGCC [G35C U38A A41U] | 0.04
31 | GGCAGAGCUCAACACCCCGUGGCAAAGUGGCAGUGACUAGACUGCC [A16C G17C U32A G36A] | 0.04
32 | GGCCGAGCUCAACUCAGCGUGGCAAAGUGGCAGUGGCUAGACUGCC [A4C A14U U32A] | 0.08
33 | GGCAGAGCUCAAUACCGCGUGGCAAAGGGGCUGUGGCUAGACUGCC [C13U A16C U28G] | 0.03
34 | GGCAGAGCGCAACACAGCGUGGCAAAGUGGCUGGGGCUAGAAUGCC [U9G U34G C42A] | 0.07
35 | GGCAGAUCUGAAAACAGCGUGGCAAAGUGGGUGUGGCUAAACUGCC [G7U C10G C13A C31G G40A] | 0.01
36 | GGCAGAGCUCAACACAGCGUGGCAAAGUGGCUGUGGGUAGACUGAU [C37G C45A C46U] | 0.03
37 | GGCAGAGCUCCAUACAACGUGGCAAAGUGGCUGUGGCUAUACUGCC [A11C C13U G17A G40U] | 0.04
38 | GGCAGAGAUCAACACAGCGUGGCAAAGUGGUUGUGGCUAUACUGCC [C8A C31U G40U] | 0.09

Row | Variant | self-cleavage
39 | GUAAGAGCUCAACACAGCGUGGCAAAGUGGCUGUGGCGAGACUGCC [G2U C3A U38G] | 0.02
40 | GGCAGGGCUCAACACAGCGUGGCAAAGUGGCUGUGACUAGACUGCA [A6G G36A C46A] | 0.12
41 | GCCAGUGCUCAACACAGCGUAGCAAAGUGGCUGUGGCUAGACUGCC [G2C A6U G21A] | 0.07
42 | CGCAGAGCUCAACUCAGCGCGGCAAAGUGGCUGUGGCUAGACUGCC [G1C A14U U20C] | 0
43 | GGCAGAUCUCAACACAGCGUGGCAAAGGGGCUGUCGCGAGACAGCC [G7U U28G G35C U38G U43A] | 0.08
44 | GGCAGAGCUCAACAUAGCGUGGCCAAGUGUCUGUGGCUAGACUGCC [C15U A24C G30U] | 0.07
45 | GGGAGAGCCCAACACAGCAUGGUAAAGUGGCUGUGGCUAGACUGCC [C3G U9C G19A C23U] | 0.03
46 | GGCAGCACUCAACACAGAGUGGCAAAGUGGCCGUGGCUAGACUGCC [A6C G7A C18A U32C] | 0.01
47 | GGCAGAGGUCACCACAGCGUGGCAAAGUUGCUGUGGCUAGACUGGC [C8G A12C G29U C45G] | 0.01
48 | GGCAGAGCUCAGCACAGCGGGGCAAAGUGGCUGUGGCUAGUCUGCC [A12G U20G A41U] | 0
49 | GGUAGAGCUCAACACUGUGUGGCAAAGUGGCUGUGGCUAGACUGUC [C3U A16U C18U C45U] | 0
50 | GGCAUAGCACAACACAGCGUGGCAAAGUAGCUCUGGCUAGACUGCC [G5U U9A G29A G33C] | 0.11
51 | GGAAGAGCUGAACACACCGUGGCAAAGUUGAUGUGGCUAGACUGCC [C3A C10G G17C G29U C31A] | 0.02
52 | GGCAGAGCUCAACACAUCGUGGCAAAGUGGCUGUGGCUAUCCUGGC [G17U G40U A41C C45G] | 0
53 | GGCAGAGCUGAACACAGCGUGGUAAAGUGGGUGUGGCUUGACUGCC [C10G C23U C31G A39U] | 0.01
54 | GGUAGAGCUCAACACAGCGUGGCAUAGUGGGUGUGGAUAGACUCCC [C3U A25U C31G C37A G44C] | 0.04
55 | GGCGGAGCUCAACACAGCAUGGCAAAGUCGCUGUGGCUAGACUGCC [A4G G19A G29C] | 0.47
56 | CGCAGCGCUAAACACAGCGUGGCAAACUGGCUGUGGCUAGACUGCC [G1C A6C C10A G27C] | 0.03
